# Measured values published in the antibiotic and cytotoxicity screens of Wong et al. (2023).
# The other results are listed elsewhere or left out.
# What was measured:
# HSkMC = human skeletal muscle cells; experiment: cytotoxicity call (relative viability < 0.9); settings: 10 µM
# HepG2 = experiment: cytotoxicity call (relative viability < 0.9); settings: 10 µM
# S. aureus RN4220 = experiment: growth inhibition call (relative growth <= 0.2); settings: 50 µM
Compound,cytotoxicity call (HSkMC),cytotoxicity call (HepG2),growth inhibition call (S. aureus RN4220)
COc1ccc(-c2cnc3c(c2)C(=O)N([C@@H](C)CO)C[C@@H](C)[C@H](CN(C)C(=O)Cc2ccccn2)O3)cc1,inactive,inactive,inactive
C[C@@H]1CCCCO[C@@H](CN(C)S(=O)(=O)c2cccs2)[C@H](C)CN([C@@H](C)CO)C(=O)c2cc(NC(=O)Nc3ccc(F)cc3)ccc2O1,inactive,inactive,inactive
C[C@@H]1CN([C@@H](C)CO)C(=O)c2cc(NC(=O)NC3CCCCC3)ccc2O[C@@H](C)CCCCO[C@H]1CN(C)C(=O)Nc1cccc2ccccc12,inactive,inactive,inactive
Cc1noc(C)c1NC(=O)Nc1ccc2c(c1)C(=O)N([C@H](C)CO)C[C@@H](C)[C@@H](CN(C)S(=O)(=O)c1ccc(F)cc1)OCCCC[C@@H](C)O2,inactive,inactive,inactive
C[C@@H]1CN([C@@H](C)CO)C(=O)Cc2cc(NC(=O)c3ccncc3)ccc2O[C@H]1CN(C)Cc1ccc(-c2ccccc2)cc1,inactive,active,inactive
C[C@H](CO)N1C[C@H](C)[C@@H](CN(C)C(=O)C2CCCCC2)OCCCC[C@H](C)Oc2ccc(NC(=O)C3CCCCC3)cc2C1=O,inactive,inactive,inactive
COc1ccc(S(=O)(=O)Nc2ccc3c(c2)C(=O)N([C@@H](C)CO)C[C@@H](C)[C@@H](CN(C)C(=O)NC2CCCCC2)OCCCC[C@H](C)O3)cc1,inactive,inactive,inactive
Cc1ccccc1-c1ccc2c(c1)O[C@H](CN(C)C(=O)Nc1ccc(C(F)(F)F)cc1)[C@@H](C)CN([C@H](C)CO)S2(=O)=O,inactive,inactive,inactive
NCc1nnc2n1CCCCC2,inactive,inactive,inactive
C[C@@H]1CN([C@H](C)CO)C(=O)c2cc(NC(=O)Nc3ccc(C(F)(F)F)cc3)ccc2O[C@H]1CN(C)Cc1ccc(Cl)c(Cl)c1,active,active,inactive
Clc1nc(-c2ccccn2)nc2scc(-c3ccccc3)c12,inactive,inactive,inactive
C[C@H](CO)N1C[C@H](C)[C@H](CN(C)C(=O)Nc2ccc(C(F)(F)F)cc2)Oc2ccc(NS(=O)(=O)c3ccc(Cl)cc3)cc2C1=O,inactive,inactive,inactive
C[C@@H]1CN([C@H](C)CO)C(=O)Cc2cc(NS(=O)(=O)c3ccc(F)cc3)ccc2O[C@@H]1CN(C)S(=O)(=O)c1ccc(F)cc1,inactive,inactive,inactive
COc1ccc(-c2cccc(-c3nc(C(=O)NCC(F)(F)F)cc4c3[C@H](CCO)N([S@@](=O)C(C)(C)C)C4)c2)cc1,inactive,inactive,inactive
CC(=O)c1c(O)cc(O)cc1O,inactive,inactive,inactive
C[C@@H]1CN([C@H](C)CO)C(=O)c2cccc(NS(C)(=O)=O)c2O[C@H]1CN(C)S(=O)(=O)c1ccccc1,inactive,inactive,inactive
O=C(Oc1cccc2cccnc12)c1ccccc1,inactive,active,inactive
Cc1cc(C(F)(F)F)cc(Cl)n1,inactive,inactive,inactive
C[C@@H]1CN([C@H](C)CO)C(=O)c2cc(NC(=O)Nc3ccc4c(c3)OCO4)ccc2O[C@H]1CN(C)Cc1ccc(Cl)c(Cl)c1,inactive,inactive,inactive

Compound,cytotoxicity call (HSkMC),cytotoxicity call (HepG2),growth inhibition call (S. aureus RN4220)
COCCOC(=O)N1C(=O)[C@@]2(c3ccccc31)[C@H](c1ccc(O)cc1)N1[C@H](c3ccccc3)[C@H](c3ccccc3)OC(=O)[C@H]1[C@@H]2C(=O)Nc1nc2ccccc2s1,inactive,inactive,inactive
O=C(NO)c1cn(CC(=O)N2CCC3(CC2)C(=O)NCN3c2ccccc2)nn1,inactive,inactive,inactive
CCS(=O)(=O)N1Cc2cc(C(=O)NCCOC)nc(-c3cccc(-c4ccncc4)c3)c2[C@@H]1CCO,inactive,inactive,inactive
C[C@H](CO)N1C[C@H](C)[C@@H](CN(C)Cc2ccc(C(=O)Nc3ccccc3N)cc2)Oc2ccc(NC(=O)Cc3cn(C)c4ccccc34)cc2C1=O,inactive,inactive,inactive
Cc1nc(-c2ccc(Cl)cc2)c(-c2ccccc2)s1,inactive,active,inactive
COc1ccc(CN(C)C[C@@H]2Oc3ccc(NC(=O)Cn4cnnn4)cc3CC(=O)N([C@@H](C)CO)C[C@H]2C)cc1,inactive,inactive,inactive
CN1CCN(C(=O)C[C@H]2CC[C@H]3[C@@H](COC[C@@H](O)CN3C(=O)Nc3ccc4c(c3)OCO4)O2)CC1,inactive,inactive,inactive
CCOC(N)=O,inactive,inactive,inactive
COc1cccc(NC(=O)N[C@@H]2CC[C@@H](CC(=O)N3CCOCC3)O[C@H]2CO)c1,inactive,inactive,inactive
C[C@H](CO)N1C[C@H](C)[C@@H](CN(C)Cc2ccc(-c3ccccc3)cc2)Oc2ccc(NC(=O)Cn3cnnn3)cc2CC1=O,inactive,inactive,inactive
C[C@H]1CN([C@@H](C)CO)C(=O)c2cccc(NC(=O)c3ccc(-c4nccs4)cc3)c2O[C@H]1CN(C)Cc1ccc(-c2ccccc2)cc1,inactive,inactive,inactive
CC(C)NC(=O)Nc1cccc2c1O[C@H](CN(C)S(=O)(=O)c1cccs1)[C@H](C)CN([C@H](C)CO)C2=O,inactive,inactive,inactive
O=c1ncc(F)c[nH]1,inactive,inactive,inactive
Cc1ccc(S(=O)(=O)N(C)C[C@@H]2Oc3ccc(NC(=O)Cn4cnnn4)cc3CC(=O)N([C@H](C)CO)C[C@@H]2C)cc1,inactive,inactive,inactive
C[C@@H]1CN([C@@H](C)CO)C(=O)Cc2cc(NC(=O)Nc3ccc(C(F)(F)F)cc3)ccc2O[C@@H]1CN(C)Cc1ccc(-c2ccccc2)cc1,active,active,inactive
CN(c1cccc(C(N)=O)c1)S(C)(=O)=O,inactive,inactive,inactive
O=C(C[C@@H]1CC[C@@H]2[C@H](COC[C@H](O)CN2S(=O)(=O)c2ccccc2)O1)N1CCc2ccccc2C1,inactive,inactive,inactive
C[C@@H]1CN([C@H](C)CO)C(=O)c2cc(NC(=O)Nc3ccccc3)ccc2O[C@@H](C)CCCCO[C@H]1CN(C)C(=O)NC1CCCCC1,inactive,active,inactive
C[C@@H]1CCCCO[C@@H](CN(C)C(=O)Nc2ccc(F)cc2)[C@@H](C)CN([C@@H](C)CO)C(=O)c2cc(NC(=O)C3CCCCC3)ccc2O1,inactive,inactive,inactive

Compound,cytotoxicity call (HSkMC),cytotoxicity call (HepG2),growth inhibition call (S. aureus RN4220)
C[C@@H]1CN([C@@H](C)CO)C(=O)c2cc(NC(=O)C3CCCCC3)ccc2O[C@@H](C)CCCCO[C@H]1CN(C)C(=O)c1ccccc1,inactive,inactive,inactive
COCCNCc1ccc(-c2cc3nccc(Oc4ccc(NC(=S)NC(=O)Cc5ccc(F)cc5)cc4F)c3s2)nc1,active,active,inactive
Cn1cc(S(=O)(=O)N2CCN(c3ccc(F)cc3)CC2)c(=O)n(C)c1=O,inactive,inactive,inactive
Cn1cnc(CCNC(=O)C[C@H]2CC[C@@H]3[C@H](COC[C@@H](O)CN3C(=O)C3CC3)O2)c1,inactive,inactive,inactive
Cc1noc(C)c1S(=O)(=O)Nc1ccc2c(c1)CC(=O)N([C@H](C)CO)C[C@H](C)[C@@H](CN(C)S(=O)(=O)c1c(C)noc1C)O2,inactive,inactive,inactive
S=C1NCN(Cc2cccs2)CN1,inactive,inactive,inactive
COc1ccc([Si](C)(C)[C@@H]2[C@@H](CCn3cc([C@H](O)c4ccccc4)nn3)O[C@]3(C(=O)N(Cc4ccc(N5C(=O)c6cccc7cccc5c67)cc4)c4ccccc43)[C@H]2C)cc1,inactive,active,inactive
CCOC(=O)CCCCCC(=O)Nc1ccc2c(c1)C(=O)N([C@@H](C)CO)C[C@H](C)[C@H](CN(C)S(=O)(=O)c1ccc(OC)cc1)OCCCC[C@H](C)O2,inactive,inactive,inactive
C[C@@H]1CCCCO[C@H](CN(C)CC2CCCCC2)[C@H](C)CN([C@H](C)CO)C(=O)c2cc(NS(=O)(=O)c3ccc(F)cc3)ccc2O1,inactive,inactive,inactive
C[C@H]1CN([C@@H](C)CO)C(=O)Cc2cc(NC(=O)NC3CCCCC3)ccc2O[C@H]1CN(C)Cc1ccc(Oc2ccccc2)cc1,inactive,active,inactive
C[C@H](CO)N1C[C@H](C)[C@H](CN(C)S(C)(=O)=O)OCc2ccccc2-c2c(n(C)c3ccccc23)C1=O,inactive,inactive,inactive
CCn1cc(C(=O)O)c(=O)c2cnc(N3CCCC3)nc21,inactive,inactive,inactive
Cc1noc(C)c1NC(=O)Nc1ccc2c(c1)C(=O)N([C@@H](C)CO)C[C@H](C)[C@@H](CN(C)C(=O)NC1CCCCC1)OCCCC[C@H](C)O2,inactive,inactive,inactive
CC(C)NC(=O)N(C)C[C@@H]1Oc2ccc(NC(=O)NC3CCCCC3)cc2C(=O)N([C@@H](C)CO)C[C@H]1C,inactive,inactive,inactive
C[C@@H]1CN([C@@H](C)CO)C(=O)c2cc(NC(=O)Nc3cccc4ccccc34)ccc2O[C@@H](C)CCCCO[C@@H]1CN(C)C(=O)Nc1ccccc1,inactive,inactive,inactive
Cc1ccc(S(=O)(=O)N2C[C@@H](O)COC[C@H]3O[C@H](CC(=O)N[C@@H]4CCN(Cc5ccccc5)C4)CC[C@@H]32)cc1,inactive,inactive,inactive
Cn1cnc(S(=O)(=O)N2C[C@H](O)COC[C@@H]3O[C@H](CC(=O)NC4CCCC4)CC[C@H]32)c1,inactive,inactive,inactive
C[C@H]1CCCCO[C@@H](CN(C)C(=O)Nc2ccc(C(F)(F)F)cc2)[C@@H](C)CN([C@@H](C)CO)C(=O)c2cc(NC(=O)Nc3cccc4ccccc34)ccc2O1,inactive,inactive,inactive
